# The full list was thinned out, with the strongest signals kept by preference.
# What was measured:
# Test in all cases: glycan array binding signal (z-score within array); higher = stronger binding
# Conditions in all cases: glycan notation: IUPAC condensed, linker removed
# [1] = target: Gal(b1-4)GlcNAc(b1-3)Gal(b1-4)GlcNAc(b1-2)[Gal(b1-4)GlcNAc(b1-3)Gal(b1-4)GlcNAc(b1-6)]Man(a1-6)[Gal(b1-4)GlcNAc(b1-3)Gal(b1-4)GlcNAc(b1-2)Man(a1-3)]Man(b1-4)GlcNAc(b1-4)[Fuc(a1-6)]GlcNAc
# In short: (§1)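 Glycan array data came from 3228 arrays in the Consortium for Functional Glycomics database, and only arrays with an available protein sequence were kept. Glycan names were put into IUPAC-condensed notation, and columns mapping to the same glycan were averaged. The binding signal is a within-array Z-score, averaged across arrays of one protein sequence run at different concentrations or buffers and across linkers. A negative Z-score can be read as non-binding.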
# [2] = target: Gal3S(b1-3)[Fuc(a1-4)]GlcNAc
# In short: as §1
# [3] = target: GlcNAc(a1-3)Gal(b1-4)GlcNAc
# In short: as §1
# [4] = target: GlcNAc(b1-2)Man(a1-3)[GlcNAc(b1-4)][GlcNAc(b1-2)Man(a1-6)]Man(b1-4)GlcNAc(b1-4)GlcNAc
# In short: as §1
# [5] = target: GlcNAc(b1-2)[GlcNAc(b1-4)]Man(a1-3)[GlcNAc(b1-2)Man(a1-6)]Man(b1-4)GlcNAc(b1-4)GlcNAc
# In short: as §1
# GlcNAc(b1-3)Gal(b1-4)Glc = target: GlcNAc(b1-3)Gal(b1-4)Glc
# In short: as §1
# [6] = target: GlcNAc(b1-3)Gal(b1-4)GlcNAc(b1-3)Gal(b1-4)GlcNAc(b1-3)GalNAc
# In short: as §1
# GlcNAc(b1-3)Man = target: GlcNAc(b1-3)Man
# In short: as §1
# [7] = target: GlcNAc(b1-3)[GlcNAc(b1-4)][GlcNAc(b1-6)]GlcNAc
# In short: as §1
# [8] = target: GlcNAc6S(b1-3)Gal(b1-4)GlcNAc
# In short: as §1
# [9] = target: Man(a1-2)Man(a1-2)Man(a1-3)Man
# In short: as §1
# [10] = target: Man(a1-2)Man(a1-2)Man(a1-6)[Man(a1-3)]Man
# In short: as §1
# Man(a1-2)Man(a1-3)Man = target: Man(a1-2)Man(a1-3)Man
# In short: as §1
# [11] = target: Man(a1-2)Man(a1-3)[Man(a1-2)Man(a1-6)]Man
# In short: as §1
# [12] = target: Man(a1-2)Man(a1-3)[Man(a1-2)Man(a1-6)]Man(a1-6)[Man(a1-2)Man(a1-2)Man(a1-3)]Man
# In short: as §1
# [13] = target: Man(a1-2)Man(a1-6)[Man(a1-3)]Man(a1-6)[Man(a1-2)Man(a1-2)Man(a1-3)]Man
# In short: as §1
# [14] = target: Man(a1-2)Man(a1-6)[Man(a1-3)]Man(a1-6)[Man(a1-2)Man(a1-2)Man(a1-3)]Man(b1-4)GlcNAc(b1-4)GlcNAc
# In short: as §1
# [15] = target: Neu5Ac(a2-3)Gal(b1-3)[GlcNAc(b1-6)]GalNAc
# In short: as §1
# [16] = target: Neu5Ac(a2-3)Gal(b1-4)GlcNAc(b1-3)Gal(b1-4)GlcNAc(b1-2)Man(a1-3)[Neu5Ac(a2-3)Gal(b1-4)GlcNAc(b1-3)Gal(b1-4)GlcNAc(b1-2)Man(a1-6)]Man(b1-4)GlcNAc(b1-4)GlcNAc
# In short: as §1
# [17] = target: Neu5Ac(a2-3)Gal(b1-4)[Fuc(a1-3)]GlcNAc(b1-3)Gal(b1-4)GlcNAc
# In short: as §1
# [18] = target: Neu5Ac(a2-3)Gal6S(b1-4)[Fuc(a1-3)]GlcNAc
# In short: as §1
# [19] = target: Neu5Ac(a2-3)[GalNAc(b1-4)]Gal(b1-4)Glc
# In short: as §1
# [20] = target: Neu5Ac(a2-3)[Neu5Ac(a2-6)]GalNAc
# In short: as §1
# [21] = target: Neu5Ac(a2-6)Gal(b1-4)GlcNAc(b1-2)Man(a1-3)Man(b1-4)GlcNAc(b1-4)GlcNAc
# In short: as §1
# [22] = target: Neu5Ac(a2-6)Gal(b1-4)GlcNAc(b1-2)[Neu5Ac(a2-6)Gal(b1-4)GlcNAc(b1-4)]Man(a1-3)[GlcNAc(b1-4)][Neu5Ac(a2-6)Gal(b1-4)GlcNAc(b1-2)[Neu5Ac(a2-6)Gal(b1-4)GlcNAc(b1-6)]Man(a1-6)]Man(b1-4)GlcNAc(b1-4)GlcNAc
# In short: as §1
# [23] = target: Neu5Ac(a2-6)Gal(b1-4)GlcNAc(b1-3)Gal(b1-4)GlcNAc
# In short: as §1
# [24] = target: Neu5Ac(a2-6)Gal(b1-4)GlcNAc6S
# In short: as §1
# [25] = target: Neu5Ac(a2-6)GalNAc(b1-4)GlcNAc
# In short: as §1
binder,measurement,setting,value
Avaren-Fc (Actinomycete K97) (protein) ASGTIRNAETGRCLDSNYNGNVYTLPCNGGNYQRWTGPGDGTVRNAETGRCLDSNYDGAVYTLPCNGGSYQKWTGPGDGTIQNAETGRCLDSNYNGNVYTLPCNGGNYQKWTGGGGSV[in this place human IgG1 Fc with changes],glycan array binding signal (z-score),[1],-0.139
same,glycan array binding signal (z-score),[2],-0.128
same,glycan array binding signal (z-score),[3],-0.172
same,glycan array binding signal (z-score),[4],-0.183
same,glycan array binding signal (z-score),[5],-0.178
same,glycan array binding signal (z-score),GlcNAc(b1-3)Gal(b1-4)Glc,-0.172
same,glycan array binding signal (z-score),[6],-0.173
same,glycan array binding signal (z-score),GlcNAc(b1-3)Man,-0.148
same,glycan array binding signal (z-score),[7],-0.166
same,glycan array binding signal (z-score),[8],-0.178
same,glycan array binding signal (z-score),[9],11.4
same,glycan array binding signal (z-score),[10],11.9
same,glycan array binding signal (z-score),Man(a1-2)Man(a1-3)Man,0.661
same,glycan array binding signal (z-score),[11],5.75
same,glycan array binding signal (z-score),[12],8.63
same,glycan array binding signal (z-score),[13],7.24
same,glycan array binding signal (z-score),[14],6.97
same,glycan array binding signal (z-score),[15],-0.136
same,glycan array binding signal (z-score),[16],-0.15
same,glycan array binding signal (z-score),[17],-0.12
same,glycan array binding signal (z-score),[18],-0.183
same,glycan array binding signal (z-score),[19],-0.177
same,glycan array binding signal (z-score),[20],-0.171
same,glycan array binding signal (z-score),[21],-0.15
same,glycan array binding signal (z-score),[22],-0.178
same,glycan array binding signal (z-score),[23],-0.181
same,glycan array binding signal (z-score),[24],-0.186
same,glycan array binding signal (z-score),[25],-0.179

# — the supplement of paper PMC8728848
